The whole screen tested about 130,000 compounds, of which about 1,900 (1.5%) were called active. The shares of active, inactive and inconclusive entries below differ from those in the screen. Calls follow the shape of the dose curve; as a rule, active = well fitted cell-killing curve with a large enough effect; inconclusive = small, poorly fitted or top-dose-only effect; inactive = no such curve, though single readings can be large or run the other way. A potency beside an inconclusive call is a rough fit, not a confirmed value.
Experiment: qHTS Screen for Compounds that Selectively Target Cancer Cells with p53 Mutations: Cytotoxicity of p53ts Cells at the Nonpermissive Temperature; also: nearly all actives have a fitted effect of over 55% in size
Conditions: H1299-p53A138V viability at 39C, ATP luminescence, 24 h; activity change, negative = cell killing: at 46.1 µM (top of the series)
With CC(=O)C1=C(c2ccc(F)cc2)N(C(C)=O)n2c(nnc2C2CCCCC2)S1 the Potency was inconclusive: 39.8 µM [cytotoxic, partial curve, poor fit].
With CN(C)CCN(Cc1ccco1)C(=O)c1cc2c(s1)-c1ccccc1OC2 the Potency was active: 12.6 µM.
With O=C(c1cc(-c2ccc(F)cc2)on1)N1CCCC1 the Potency was active: 10 µM.
With O=C(Oc1ccccc1)N1CCC[C@@]2(CCN(c3ccccn3)C2)C1 the “activity change, negative = cell killing” value was inactive: -6.46%.
For COc1ccccc1C(=O)Nc1ccc2c(c1)OCO2, the Potency was inconclusive: 12.6 µM [cytotoxic, single point].
In the case of COc1ccc(OC)c(NC(=O)Cn2ccn(-c3ccc(OC)c(OC)c3)c(=O)c2=O)c1, the Potency was inconclusive: 31.6 µM [cytotoxic, single point].
In the case of CC(C)(C)C(=O)Nc1ccc(-c2cn3ccsc3n2)cc1, the Potency was active: 0.794 µM.
With O=C(c1ccccc1Br)N(Cc1ccco1)Cc1ccco1 the Potency was inconclusive: 12.6 µM [cytotoxic, partial curve, poor fit].
For Cc1ccc(C2Nc3ccc4ccccc4c3C3=C2C(=O)CC(C)(C)C3)o1 (stereo not given), the “activity change, negative = cell killing” value was inactive: 17.9%.
In the case of O=c1c(=O)n(-c2ccc(F)c(F)c2)ccn1Cc1ccc(F)cc1Cl, the Potency was inconclusive: 6.31 µM [cytotoxic, partial curve].
With CCc1cccc(C)c1NC(=O)Cn1nc(C)n2cccc2c1=O the Potency was active: 12.6 µM.
For COCC(C)NC(=O)CCS(=O)(=O)c1nc(-c2ccc(OC)cc2)cc(C(F)(F)F)n1 (stereo not given), the Potency was inconclusive: 31.6 µM [cytotoxic, single point].
In the case of Cc1cc(C)c2c(N)c(C(=O)Nc3nccs3)sc2n1, the Potency was active: 1 µM.
With Cc1nn(C)cc1CN(C)C(=O)c1cc(-c2ccccc2)nc2ccc(Br)cc12 the Potency was inconclusive: 12.6 µM [cytotoxic, single point].
With NCCCCCCNS(=O)(=O)c1ccc2c(Cl)cccc2c1 the Potency was active: 31.6 µM.
For CCOc1ccc(NC(=O)Cn2c(=O)n(CCCCCC(=O)NCc3ccccc3)c(=O)c3sccc32)cc1, the Potency was inconclusive: 10 µM [cytotoxic, partial curve].
In the case of Cc1ccc(C)c(N2CCN(S(=O)(=O)c3ccc4c(c3)C(C(C)C)C(=O)N4)CC2)c1 (stereo not given), the Potency was inconclusive: 15.8 µM [cytotoxic, single point].
In the case of Cc1ccc2c(c1)N(CC(=O)NCCN1CCOCC1)C(=O)CO2, the “activity change, negative = cell killing” value was inactive: 3.62%.
In the case of O=S(=O)(NCCc1csc2nc(-c3ccccc3)nn12)c1cc(F)ccc1F, the “activity change, negative = cell killing” value was inactive: -22%.
With CCCCn1cnc2cc(NCc3ccccc3Cl)ccc21 the Potency was inconclusive: 31.6 µM [cytotoxic, single point].

— PubChem BioAssay AID902 (National Center for Advancing Translational Sciences (NCATS), 2007)
% is scaled to controls: 0 for no effect and ±100 for the full control effect; potency is read from the fitted curve at half-maximal effect; tags tell the direction and shape of the fitted curve.
